Where “and” joins values, the source holds several entries; their conditions need not be identical. Identical values can stand only once. Some of the results follow. The main result of the screen is listed elsewhere. These columns were measured beside it and carry no call.

Assay in all cases: Primary Screen for Target Class Profiling of Small Molecule Inhibitors of Methyltransferases
Experiment [1] has as its target Glycine N-methyltransferase (Homo sapiens) (UniProt Q14749). The following applies: purified enzyme, MTase-Glo SAH luminescence; measured here: GNMT inhibition; at 40 µM; stronger effect = lower value. The procedure, abridged:
(§1)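 Each enzyme was assayed with SAM and its substrate. SAH formation detected by MTase-Glo luminescence; single-point 40 uM screen[…].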

Experiment [2] addresses Guanidinoacetate N-methyltransferase (Homo sapiens) (UniProt Q14353). The settings on record: purified enzyme, MTase-Glo SAH luminescence; measured here: GAMT inhibition; at 40 µM; stronger effect = lower value. Put shortly:
as §1

Experiment [3] concerns the target Histamine N-methyltransferase (Homo sapiens) (UniProt P50135). The settings on record: purified enzyme, MTase-Glo SAH luminescence; measured here: HNMT inhibition; at 40 µM; stronger effect = lower value. Put shortly: as §1
In experiment [4] the target is Nicotinamide N-methyltransferase (Homo sapiens) (UniProt P40261). The settings on record: purified enzyme, MTase-Glo SAH luminescence; measured here: NNMT inhibition; at 40 µM; stronger effect = lower value. The procedure, abridged:
as §1

Experiment [5] concerns the target Phenylethanolamine N-methyltransferase (Homo sapiens) (UniProt P11086). The following applies: purified enzyme, MTase-Glo SAH luminescence; measured here: PNMT inhibition; at 40 µM; stronger effect = lower value. Put shortly: as §1
On the % scale 0 is the no-effect control and ±100 the full control effect.

Regarding `COC(=O)c1ncn2c1C(=O)N(Cc1ccccc1OC)C(C)(C(=O)NC1CCCCCC1)C2` (stereo not given), the activity change, negative = inhibition in experiment [1] is -0.373%; in experiment [2] it was 3.12%; in experiment [3], -1.45%; in experiment [4], -3.09%; in experiment [5], 0.998%.

In the case of `CC1CCCC(NC(=O)C2(C)Cn3c(ccc3-c3ccco3)C(=O)N2Cc2cccnc2)C1C` (stereo not given), the activity change, negative = inhibition in experiment [1] is 2.3%; in experiment [2], 1.36%; in experiment [3], 10.9%; in experiment [4], 6.73%; in experiment [5], 5.08%.

Take `COC(=O)[C@@H](Cc1c[nH]c2ccccc12)NC(=O)[C@@H]1CN(C(=O)c2cccnc2)CCN1C(=O)NC(C)C`: the activity change, negative = inhibition was -7.5% in experiment [1]; -5.45% in experiment [2]; -2.96% in experiment [3]; -7.2% in experiment [4]; -4.46% in experiment [5].

Regarding `CN(C)c1ccc2c(c1)OC(N)=C(C#N)C2c1cccc(C(F)(F)F)c1` (stereo not given), the activity change, negative = inhibition in experiment [1] was -7.64%; in experiment [2] it was 5.35%; in experiment [3] it was -6.21%; in experiment [4], -29.2%; in experiment [5], -13.3%.

For the compound `COCCC1(NC(=O)C2CC2)CCN(C(=O)C2CC2)CC1`, the activity change, negative = inhibition is 0.506% in experiment [1]; -0.685% in experiment [2]; 0.151% in experiment [3]; -2.17% in experiment [4]; -4.34% in experiment [5].

As to `C=C1Cc2c(Cl)cc3[nH]c4c5c3c2[C@@]2(O)[C@@H]1C[C@@H]2C(C)(C)O[C@H]5C1CC[C@@]2(O)[C@@]35O[C@@H]3[C@H]3OC(C)(C)[C@H]3O[C@H]5CC[C@]2(C)[C@@]41C` (stereo not given in full), the activity change, negative = inhibition is 0.027% in experiment [1]; 9.63% in experiment [2]; 2.88% in experiment [3]; -4.88% in experiment [4]; 4.79% in experiment [5].

For `COc1ccc(N2CCN(CCCNC(=O)CCc3nnc4n(CC(C)C)c(=O)c5ccccc5n34)CC2)cc1`, the activity change, negative = inhibition in experiment [1] was -9.6%; in experiment [2] it was 1.11%; in experiment [3], -4.09%; in experiment [4], -7.42%; in experiment [5] it was -6.02%.

For the compound `C/C=C1/[C@H](O[C@@H]2O[C@H](CO)[C@@H](O)[C@H](O)[C@H]2O)OC=C(C(=O)OC)[C@H]1CC(=O)O[C@@H]1O[C@H](CO)[C@@H](O)[C@H](O)[C@H]1O`, the activity change, negative = inhibition in experiment [1] was 2.28%; in experiment [2], 5.72%; in experiment [3] it was 4.84%; in experiment [4] it was -6.25%; in experiment [5] it was 2.72%.

`CCCCOc1ccc(CNC(=O)c2cc3n(n2)CC(C)(C(=O)NCc2ccc(F)cc2)N(C)C3=O)cc1` (stereo not given): the activity change, negative = inhibition is -2.81% in experiment [1]; -0.186% in experiment [2]; -8.96% in experiment [3]; -3.34% in experiment [4]; -2.6% in experiment [5].

As for `CN(Cc1ccco1)C(=O)Cn1c(=O)oc2cc(S(=O)(=O)NCc3ccccc3)ccc21`, the activity change, negative = inhibition in experiment [1] is -6.06%; in experiment [2], 3.49%; in experiment [3] it was -6.21%; in experiment [4], 5.13%; in experiment [5] it was -8.83%.

Turning to `CCC(C)NC(=O)c1ccc2c(=O)n(C(C)C)c3nn(CC(=O)c4cccc(Cl)c4)c(=O)n3c2c1` (stereo not given), the activity change, negative = inhibition in experiment [1] was 5.32%; in experiment [2], 0%; in experiment [3] it was 7.17%; in experiment [4], -1.31%; in experiment [5], 3.44%.

Take `O=C(Nc1ccccc1Cl)c1cnc2ccc(C3CCNCC3)cn12`: the activity change, negative = inhibition was -5.21% in experiment [1]; 1.45% in experiment [2]; -17.8% in experiment [3]; -13% in experiment [4]; -3.98% in experiment [5].

For `CC(C)c1c(C(=O)Nc2ccccc2)c(-c2ccccc2)c(-c2ccc(F)cc2)n1CC[C@@H](O)C[C@@H](O)CC(=O)O`, the activity change, negative = inhibition in experiment [1] was -10.7% and 0.063%; in experiment [2], 2.63% and -2.6%; in experiment [3], -2.1% and 12%; in experiment [4] it was -6.84% and -8.59%; in experiment [5] it was 3.35% and 4.09%.

As for `CC(=O)O[C@@H]1[C@@H](O)[C@H](O[C@H]2CC[C@]34C[C@]35CC[C@]3(C)[C@@H]([C@@]6(C)CC[C@@H](C(C)(C)O)O6)[C@@H](O)C[C@@]3(C)[C@@H]5C[C@H](O[C@@H]3O[C@H](CO)[C@@H](O)[C@H](O)[C@H]3O)[C@H]4C2(C)C)OC[C@H]1O`, the activity change, negative = inhibition in experiment [1] is -0.471%; in experiment [2], 13.9%; in experiment [3], 4.06%; in experiment [4], 8.69%; in experiment [5], 6.83%.

Turning to `Cc1ncc(-c2nc3cc(S(=O)(=O)NC(C)C)ccc3n2C(C)C)cn1`, the activity change, negative = inhibition was -4.38% in experiment [1]; -6.35% in experiment [2]; -1.97% in experiment [3]; -12% in experiment [4]; -5.82% in experiment [5].

In the case of `CNS(=O)(=O)c1ccccc1Nc1nc(Nc2ccc(N3CCN(C)CC3)cc2OC)ncc1Cl`, the activity change, negative = inhibition in experiment [1] was -17.7%; in experiment [2], 14.8%; in experiment [3] it was -37.9%; in experiment [4], -14.8%; in experiment [5], -5.61%.

Consider `CN(C(=O)Cn1nc2n(C)c(=O)c3ccc(C(=O)NC4CCCCC4)cc3n2c1=O)c1ccccc1`, for which the activity change, negative = inhibition is -5.22% in experiment [1]; 3.62% in experiment [2]; 1.81% in experiment [3]; -0.983% in experiment [4]; 0.689% in experiment [5].

`CC(CCc1ccccc1)NC(=O)c1cc2n(n1)CC(C)(C(=O)NC1CCCC1)N(C)C2=O` (stereo not given): the activity change, negative = inhibition in experiment [1] is 5.8%; in experiment [2] it was 0%; in experiment [3], 1.41%; in experiment [4] it was 3.91%; in experiment [5], -0.258%.

`Cc1ccc(C)c(NC(=O)Cn2c(=O)oc3cc(S(=O)(=O)N4CC(C)CC(C)C4)ccc32)c1` (stereo not given): the activity change, negative = inhibition is -5.65% in experiment [1]; 5.9% in experiment [2]; 5.31% in experiment [3]; 8.92% in experiment [4]; -0.171% in experiment [5].

For `CC(=O)/C=C/C1(O)C(C)(C)CC(O)CC1(C)O` (stereo not given), the activity change, negative = inhibition is 4.47% in experiment [1]; 7.07% in experiment [2]; -3.31% in experiment [3]; -6.82% in experiment [4]; 4.91% in experiment [5].

With `Cc1ccccc1CN1C(=O)c2nc3ccccc3n2CC1(C)C(=O)NC1CCCCC1C` (stereo not given), the activity change, negative = inhibition was -1.06% in experiment [1]; 0.219% in experiment [2]; 5.81% in experiment [3]; 3.71% in experiment [4]; -8.02% in experiment [5].

In the case of `Cc1cc(C)n(-c2cccc(CN3CCCC(O)(CN(C)C)C3)c2)n1` (stereo not given), the activity change, negative = inhibition is -7.08% in experiment [1]; -12.3% in experiment [2]; -7.23% in experiment [3]; -18.8% in experiment [4]; -17.1% in experiment [5].

Regarding `CC1(c2ccccc2)N(Cc2cccnc2)C(=O)OC12CCN(C(=O)Cc1ccc(Cl)cc1)CC2` (stereo not given), the activity change, negative = inhibition in experiment [1] was -6.5%; in experiment [2], -4.02%; in experiment [3], -2.39%; in experiment [4], -6.35%; in experiment [5], -6.24%.

Take `COc1cccc(CNc2nc3c(S(=O)(=O)c4ccc(Br)cc4)nnn3c3ccccc23)c1`: the activity change, negative = inhibition was 6.22% in experiment [1]; 2.2% in experiment [2]; 3.47% in experiment [3]; 4.28% in experiment [4]; -0.84% in experiment [5].

For `CS(=O)(=O)N1CCOc2ccc(CCC(=O)NCC3CCCO3)cc2C1` (stereo not given), the activity change, negative = inhibition in experiment [1] was -1.78%; in experiment [2], -11.9%; in experiment [3] it was -2.04%; in experiment [4], -5.59%; in experiment [5], -3.1%.

Regarding `CCOc1cc(CNC2CCCC2)cc(Cl)c1OCc1ccc(Cl)cc1`, the activity change, negative = inhibition was -6.75% in experiment [1]; -1.48% in experiment [2]; -11.7% in experiment [3]; -19.6% in experiment [4]; -2.5% in experiment [5].

As for `CCCn1c(=O)c2ccc(C(=O)NCC(C)C)cc2n2c(SCC(=O)Nc3ccc(C)c(C)c3)nnc12`, the activity change, negative = inhibition in experiment [1] turned out to be 7.36%; in experiment [2] it was 0.171%; in experiment [3] it was 7.47%; in experiment [4] it was 0.461%; in experiment [5], 6.48%.

Values taken from PubChem BioAssay AID1745853 (National Center for Advancing Translational Sciences (NCATS), 2022).
